Results taken from PubChem BioAssay AID445 (National Center for Advancing Translational Sciences (NCATS), 2006).
Hit rate of the full screen: of about 110,000 compounds, about 40 (0.04%) were called active. Inconclusive means that the source gave no clear call. Such entries were picked first, then a sample of the others. The call rests on the fitted dose curve; in most records, active means well fitted curve in the direction sought with a large enough effect in the signal ratio (not every such curve was filed as active); inconclusive means small, poorly fitted or top-dose-only effect, or a change in a side signal; inactive means flat fitted curve, though single readings scatter; the % refers to the signal ratio. Where the call is inconclusive, the potency comes from a doubtful curve fit.
Potency means the concentration at half of the fitted maximal effect.

Experiment: IkB Signaling;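 on IkBa stabilization activation: 0% = basal untreated cells and 100% = reference inhibitor full response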
Details: ABC-DLBCL IkBa-CBG/CBR dual luciferase ratio (green luciferase fused to IkBa over red control in OCI-Ly3 lymphoma cells), 4 h; IkBa stabilization activation: at 57.1 µM (top of the series), scaled: untreated 0%, proteasome inhibitor 100% unless noted
In short: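 Curves were fitted separately to fusion (green), unfused (red) and ratio luminescence, then classed by r2, magnitude and activity. Cells: OCI-Ly3, 4 h compound plus doxycycline at 37C; 10 uM MG-132 defined full response.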
For `O=C(Nc1ccc(Cl)cc1C(=O)Nc1ccc(Br)cn1)c1ccco1`, the IkBa stabilization activation was inconclusive: 3.59% [signal inhibitor]. With `O=S1(=O)N=C(N2CCOCC2)c2ccccc21` the “IkBa stabilization activation” value was inactive: 1.52%. With `Cc1ccc(Oc2c(C(F)(F)F)oc3cc(OCC(=O)NC4CCCCC4)ccc3c2=O)cc1` the IkBa stabilization activation was inconclusive: 3.14% [signal inhibitor]. In the case of `CCc1cccc(C)c1NC(=O)CSc1nc(C)cc(C)c1C(=O)Nc1ccccc1`, the IkBa stabilization activation is reported as inconclusive: 1.47% [signal inhibitor]. With `COc1ccc(NC(=O)C(c2ccc(C)cc2)N(C)C(=O)Cc2cccs2)cc1` (stereo not given) the IkBa stabilization activation was inconclusive: 3.34% [signal inhibitor]. With `CN(C)S(=O)(=O)c1cccc(-c2nnc(SCc3cc(Cl)cc4c3OCOC4)n2N)c1` the “IkBa stabilization activation” value was inactive: 2.27%. With `Cc1ccc2cc(CN(Cc3cccs3)Cc3nnnn3CC3CCCO3)c(=O)[nH]c2c1C` (stereo not given) the IkBa stabilization activation was inconclusive: 3.95% [signal inhibitor]. With `CCC(OC(=O)c1nsc(Cl)c1Cl)C(=O)NCc1ccco1` (stereo not given) the “IkBa stabilization activation” value was inactive: -1%. For `COc1ccc(-c2cccc(NS(=O)(=O)c3cc(C)c(OC)c(C)c3C)c2)nn1`, the IkBa stabilization activation was inconclusive: 6.77% [signal inhibitor]. For `Cc1ccc(-n2c(C)cc(C(=O)OCC(=O)N(C)C3CCS(=O)(=O)C3)c2C)cc1` (stereo not given), the IkBa stabilization activation was inconclusive: 4.24% [signal inhibitor]. In the case of `COc1ccc(NC(=O)C2=C(C)Nc3nc(CCCO)nn3C2c2ccc(O)cc2)cc1` (stereo not given), the “IkBa stabilization activation” value is reported as inactive: -0.0739%. For `O=C1c2ccccc2S(=O)(=O)N1Cc1nnc(-c2ccccc2Br)o1`, the “IkBa stabilization activation” value was inactive: 0.178%. In the case of `COc1ccccc1-c1nnc(SCCOc2ccccc2C)o1`, the IkBa stabilization activation is reported as inconclusive: -0.0435% [signal inhibitor]. In the case of `COc1ccc2c(c1)C(=O)N(c1ccccc1OC)C(=O)C2`, the Potency is reported as inconclusive: 25.1 µM [signal inhibitor, partial curve]. In the case of `CCOC(=O)c1cc(-c2ccc(OC)c(S(=O)(=O)Nc3ccc(OC)cc3OC)c2)on1`, the IkBa stabilization activation is reported as inconclusive: 7.93% [signal activator]. In the case of `C=C(C)COc1ccc2c3c(c(=O)oc2c1OCC(=C)C)CCC3`, the “IkBa stabilization activation” value is reported as inactive: 0.299%. In the case of `O=C(Nc1ccc2nc(SCCOc3ccccc3Cl)sc2c1)c1cccs1`, the IkBa stabilization activation is reported as inconclusive: 1.37% [signal inhibitor]. For `N#CCCn1c(=O)c(-c2cccs2)nc2cnc(Oc3cccc(Cl)c3)nc21`, the IkBa stabilization activation was inactive: -1.15% [at 11.4 µM, scaled: untreated 0%, proteasome inhibitor 100%]. With `CCOc1cc(N2CCOCC2)c(OCC)cc1NC(=O)c1cc(-c2ccco2)nc2ccccc12` the IkBa stabilization activation was inconclusive: 3.96% [signal inhibitor]. In the case of `O=C(CSc1ncnc2sc3c(c12)CCCCC3)NCc1ccco1`, the IkBa stabilization activation is reported as inconclusive: 2.06% [signal inhibitor]. For `O=C(NCc1ccc(Cl)cc1)C1CCCN(C(=O)c2cnn(-c3ccc(F)cc3)c2-n2cccc2)C1` (stereo not given), the IkBa stabilization activation was inconclusive: 0.501% [signal inhibitor]. With `O=C(Nc1ccc(N2CCN(C(=O)c3ccco3)CC2)cc1)c1ccc(F)cc1` the “IkBa stabilization activation” value was inactive: -0.177%. With `CCCc1cc(C(=O)Nc2c(C)nn(Cc3ccc(C)cc3)c2C)no1` the IkBa stabilization activation was inconclusive: 15.4% [signal inhibitor]. For `Cc1nn(-c2ccccc2)c2sc(C(=O)OCc3nnc(-c4ccccc4)o3)cc12`, the IkBa stabilization activation was inconclusive: 1.45% [signal inhibitor]. In the case of `CCc1cccc(NC(=O)CCc2c(C)nc3c(c2C)c(=O)n(C)c(=O)n3C)c1`, the “IkBa stabilization activation” value is reported as inactive: -1.72%. With `O=C(NCc1cccnc1)c1nn(-c2ccccc2F)nc1CO` the “IkBa stabilization activation” value was inactive: 1.2%. In the case of `Cc1ccc(CNC(=O)CCSCc2ccccc2F)cc1`, the IkBa stabilization activation is reported as inconclusive: 0.539% [signal inhibitor]. With `Cc1ccc(N(C(=O)COc2ccccc2C)S(=O)(=O)c2ccc(Cl)cc2)cc1` the IkBa stabilization activation was inconclusive: 7.76% [signal inhibitor]. In the case of `COc1ccc(C2=NOC(C(=O)NCc3ccccc3)C2)cc1` (stereo not given), the “IkBa stabilization activation” value is reported as inactive: 1.06%. With `Cc1ccc(Nc2c(-c3cc(Br)ccc3F)nc3cc(C)ccn23)cc1` the IkBa stabilization activation was inconclusive: 3.3% [signal inhibitor]. For `CCN(CC)S(=O)(=O)c1cc(-c2nnc(Nc3ccc(OC)c(C(N)=O)c3)c3ccccc23)ccc1C`, the Potency was inconclusive: 25.1 µM [signal inhibitor, partial curve]. In the case of `Cc1ccc(NC(=O)c2cccc(N3CCCS3(=O)=O)c2)cc1`, the IkBa stabilization activation is reported as inconclusive: -2.66% [signal inhibitor]. With `CN(C)S(=O)(=O)c1ccc(S(=O)(=O)Nc2ccc3c(c2)oc2ccccc23)cc1` the IkBa stabilization activation was inconclusive: 4.31% [signal inhibitor]. For `COc1ccccc1N1CCN(c2ccc(=O)n(CC(=O)Nc3ccc(F)c(F)c3)n2)CC1`, the Potency was inconclusive: 10 µM [signal inhibitor]. In the case of `Cc1c(NC(=O)c2ccc(Cl)cc2)cc(C(C)C)c(O)c1S(=O)(=O)c1ccc(Cl)cc1`, the IkBa stabilization activation is reported as inconclusive: 0.671% [signal inhibitor]. With `Cc1nc2c(C(=O)NCCc3ccccc3)cnn2c(C)c1Cc1c(F)cccc1Cl` the IkBa stabilization activation was inconclusive: 4.91% [signal inhibitor]. In the case of `COc1ccc(-n2c(Cc3cccn3C)nnc2SCC(=O)Nc2ccccc2C)cc1`, the “IkBa stabilization activation” value is reported as inactive: 0.91%. With `c1ccc2nc3[nH]cnc3nc2c1` the “IkBa stabilization activation” value was inactive: -0.149%. In the case of `CC(C)(C)OC(=O)N1CCC(c2c(C(=O)NCc3cccs3)cnn2-c2ccc(F)cc2F)CC1`, the IkBa stabilization activation is reported as inconclusive: 4.44% [signal inhibitor]. With `COc1ccc(NC(=O)Nc2sc3nc4n(c(=O)c3c2C)CCC(C)CC4)cc1OC` (stereo not given) the “IkBa stabilization activation” value was inactive: 1.35%. In the case of `Cc1noc(/C=C/N(C)C)c1S(=O)(=O)N1CCCC(C(=O)Nc2ccc(F)cc2F)C1` (stereo not given), the IkBa stabilization activation is reported as inconclusive: 0.746% [signal inhibitor]. With `CCN(CC)C(=O)c1sc(NC(=O)C(C)Sc2nc(-c3ccccc3)cc(C(F)(F)F)n2)c(C(=O)OC)c1C` (stereo not given) the IkBa stabilization activation was inconclusive: 5.5% [signal inhibitor]. In the case of `COc1ccc(C2=CC(c3ccccc3F)n3ncc(C(=O)Nc4ccc(C)cc4)c3N2)cc1` (stereo not given), the IkBa stabilization activation is reported as inconclusive: -1.05% [signal inhibitor]. With `CC1(CCC#N)N=C(SCCC#N)N(c2ccccc2)C1=O` (stereo not given) the “IkBa stabilization activation” value was inactive: 12.9%. For `O=C(O)c1cccc(NC(=O)c2cccc(S(=O)(=O)N3CCCCC3)c2)c1`, the “IkBa stabilization activation” value was inactive: -0.889%.
